Measurements taken from ChEMBL document CHEMBL1201862, “PubChem BioAssay data set” (2004).
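Tested at 5 concentrations; 48 h exposure; 96-well plates; endpoints linearly interpolated, else capped at highest concentration. Abbreviation: GI50, concentration required for 50% inhibition of growth.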 The source made the active and inactive calls. Rule as the data show it: active = GI50 up to about 1.1 µM and inactive = higher.

test system: NCI-H322M; assay: inhibition of tumour cell growth, NCI panel, 48 h

**Q.** For CC(C)(C)c1ccc(-c2nnc(SCc3ccc(Cl)cc3)n2-c2cccc(C(F)(F)F)c2)cc1, which GI50 is on record?
**A.** inactive: 34.7 µM

**Q.** S=c1sc2c(Cl)ncnc2n1-c1ccccc1 was tested. Which GI50 did it give?
**A.** inactive: 13.6 µM

**Q.** With CC(C)(CO[C@H]1C[C@H]2CC[C@@]1(C)C2(C)C)[N+](=O)[O-] as the molecule, how does the GI50 read?
**A.** inactive: 14.4 µM

**Q.** How did the GI50 turn out when COc1ccc2nc(-c3cccc(N(C)C)c3)cc(O)c2c1 was run?
**A.** active: 0.222 µM

**Q.** Cc1noc(NC(=O)Nc2ccccc2F)c1C#N was tested. Which GI50 did it give?
**A.** inactive: > 29.6 µM

**Q.** For COc1cc(/C=C2\Cc3cc(OC)c(OC)cc3C2=O)cc(OC)c1, which GI50 is on record?
**A.** inactive: > 77.8 µM

**Q.** For COc1ccc(NC(=O)CSc2nc(C)nc3c2sc(=S)n3-c2ccccc2)cc1, which GI50 is on record?
**A.** inactive: 7.96 µM

**Q.** How did the GI50 turn out when CN1C(=O)C2C(=O)N(Cc3ccccc3)CC(=O)N2c2cccnc21 (configuration not stated) was run?
**A.** inactive: > 100 µM

**Q.** Which GI50 does the source give for O=C1C(c2ccccc2)=C(c2ccccc2)[C@H](c2ccccc2)[C@]1(Cc1nnn(-c2ccc([N+](=O)[O-])cc2)c1N1CCOCC1)c1ccccc1 here?
**A.** inactive: > 37.5 µM

**Q.** Nc1ncnc2c1ncn2CC(O)C(=O)O (configuration not stated) was tested. Which GI50 did it give?
**A.** inactive: > 100 µM

**Q.** With Oc1ccc(Br)cc1/C=N/c1cccc(C(F)(F)F)c1 as the molecule, how does the GI50 read?
**A.** inactive: 27.9 µM

**Q.** With COc1ccc(N/N=C2\CCOc3ccc(C)cc3C2=O)cc1 as the molecule, how does the GI50 read?
**A.** inactive: 60.7 µM

**Q.** CCN1C(=O)CS/C1=N\NC(=O)CSc1nc2ccccc2c(=O)n1CC was tested. Which GI50 did it give?
**A.** inactive: > 100 µM

**Q.** How did the GI50 turn out when COc1ccc(/C=C\c2cc(OC)c(OC)c(OC)c2)cc1OC was run?
**A.** active: 0.279 µM

**Q.** Which GI50 does the source give for Cc1cccc2c(N)c3cccc(C(=O)NCC[N+](C)(C)Cc4ccccc4[N+](=O)[O-])c3nc12 here?
**A.** inactive: 15 µM

**Q.** How did the GI50 turn out when CN[C@H]1CC[C@]23C[C@]24CC[C@]2(C)[C@@H]([C@H](C)N(C)C)CC[C@@]2(C)[C@@H]4CC[C@H]3C1(C)C was run?
**A.** inactive: 16.1 µM

**Q.** CSc1ccc(C(=O)C(=O)c2ccc(SC)s2)s1 was tested. Which GI50 did it give?
**A.** inactive: > 10 µM

**Q.** With C/C(=N/NC(=S)Nc1cccc(C)c1)c1ccccn1 as the molecule, how does the GI50 read?
**A.** active: < 0.01 µM

**Q.** For Clc1ccc(/C=C/c2nc(Cl)c(-c3ccc(Cl)cc3)c(Cl)n2)cc1, which GI50 is on record?
**A.** inactive: > 100 µM

**Q.** With C=C(C)[C@H]1C2=CC(C)=C(O2)[C@@H](O[C@@H]2c3oc(cc3C)[C@H](C(=C)C)[C@H]3C=C(CC[C@H]2C(=C)C)C(=O)O3)[C@H](C(=C)C)CCC2=C[C@H]1OC2=O as the molecule, how does the GI50 read?
**A.** inactive: > 100 µM

**Q.** With O=C1OCc2nc3c(c(-c4ccccc4C(F)(F)F)c21)C(=O)OC3 as the molecule, how does the GI50 read?
**A.** inactive: > 100 µM

**Q.** How did the GI50 turn out when CN(C)c1ccc(-c2c(C#N)c(O)n(NS(=O)(=O)c3ccccc3)c(=O)c2C#N)cc1 was run?
**A.** inactive: > 100 µM

**Q.** With COc1ccccc1C1ON=C(c2ccc([N+](=O)[O-])cc2)N1C12CC3CC(CC(C3)C1)C2 (configuration not stated) as the molecule, how does the GI50 read?
**A.** inactive: > 100 µM

**Q.** With O=C1C/C(Br)=C\c2ccccc2-c2ccccc21 as the molecule, how does the GI50 read?
**A.** inactive: 4.09 µM

**Q.** For CCC1C2C=CC(CC2)N1S(=O)(=O)c1ccc(C)cc1 (configuration not stated), which GI50 is on record?
**A.** inactive: 23.9 µM

**Q.** With CCCCCCCCCCCCNC(=O)NCC(OCC)OCC as the molecule, how does the GI50 read?
**A.** inactive: > 10 µM

**Q.** With CCCCCCC(=O)C/C(CCC(=O)N(Cc1ccccc1)Cc1ccccc1)=N\NC(N)=O as the molecule, how does the GI50 read?
**A.** inactive: > 100 µM

**Q.** COC(=O)[C@]1(C)CCC[C@@]2(C)C1CCC1=C[C@@]3(C(C)C)CC[C@]12OO3 (some centres not stated) was tested. Which GI50 did it give?
**A.** inactive: 50.1 µM

**Q.** How did the GI50 turn out when Cc1nc(N)nc(N)c1CCCCc1ccccc1 was run?
**A.** inactive: 17.6 µM

**Q.** Which GI50 does the source give for CCOC(=O)NC1C2CC(=O)OC(O2)C1OC(C)=O (configuration not stated) here?
**A.** inactive: > 100 µM

**Q.** For NC(=S)Nc1nc(=S)[nH]c2[nH]ccc12, which GI50 is on record?
**A.** inactive: > 100 µM

**Q.** With COc1ccc2c(c1)/C(=C\c1c(Cl)nc3n1CCS3)C(=O)N2 as the molecule, how does the GI50 read?
**A.** inactive: 5.75 µM

**Q.** Which GI50 does the source give for [O-][n+]1c2c([n+]([O-])c3ccccc31)CCCCCCCCCC2 here?
**A.** inactive: > 100 µM

**Q.** Which GI50 does the source give for CC(C)CC1N=C(OCc2ccccc2)OC1=O (configuration not stated) here?
**A.** inactive: > 100 µM

**Q.** COC(=O)C1=C(C(=O)OC)C(Cc2ccccc2)(OO)OC1=O (configuration not stated) was tested. Which GI50 did it give?
**A.** inactive: 19.7 µM

**Q.** For CCOC(=O)C1(Br)C(c2ccccc2)NC(=O)N(C2OC(COC(=O)c3ccccc3)C(OC(=O)c3ccccc3)C2OC(=O)c2ccccc2)C1(C)Br (configuration not stated), which GI50 is on record?
**A.** inactive: > 52.4 µM

**Q.** With COC1OC(C)C(O)CC1OS(=O)(=O)c1ccc(C)cc1 (configuration not stated) as the molecule, how does the GI50 read?
**A.** inactive: > 100 µM

**Q.** For COc1ccc(CN2C[C@H]3[C@@H](CC(=O)O[C@H]3C)CC2=O)cc1, which GI50 is on record?
**A.** inactive: > 100 µM

**Q.** For CCN(CC)CCOCC1CCCN2CCCCC12 (configuration not stated), which GI50 is on record?
**A.** inactive: > 100 µM

**Q.** For O=C(CCCCCCCCC(=O)OCCCn1cc(C(=O)NC(=O)OCc2ccccc2)c(=O)[nH]c1=O)OCCCn1cc(C(=O)NC(=O)OCc2ccccc2)c(=O)[nH]c1=O, which GI50 is on record?
**A.** inactive: > 100 µM

**Q.** With Cc1ccc(S(=O)(=O)NC2C(=O)c3ccccc3C(=O)C2n2cnc3ccccc32)cc1 (configuration not stated) as the molecule, how does the GI50 read?
**A.** inactive: 35.8 µM

**Q.** CC(=O)Oc1c2oc3ccc(Cl)cc3c(=O)c2c(O)c2ccsc12 was tested. Which GI50 did it give?
**A.** inactive: > 100 µM

**Q.** Which GI50 does the source give for CCc1nc(Cl)c(Cl)c(Cl)n1 here?
**A.** inactive: > 100 µM

**Q.** NC(CC(O)(c1ccccc1)c1ccccc1)c1ccccc1S (configuration not stated) was tested. Which GI50 did it give?
**A.** inactive: 19.2 µM

**Q.** COC(=O)[C@H](Cc1ccccc1)NC(=O)N(CCC#N)CCCCN(CCC#N)C(=O)N[C@@H](Cc1ccccc1)C(=O)OC was tested. Which GI50 did it give?
**A.** inactive: > 100 µM

**Q.** Which GI50 does the source give for c1ccc2c(c1)Nc1ccccc1[P+]21c2ccccc2Nc2ccccc21 here?
**A.** active: 0.383 µM

**Q.** How did the GI50 turn out when CCOC1=C(c2ccccc2)N2CCCCC2O1 (configuration not stated) was run?
**A.** inactive: 7.57 µM

**Q.** Which GI50 does the source give for c1ccc2c(OCCSCCCCCCCCCCSCCOc3cccc4ccccc34)cccc2c1 here?
**A.** inactive: > 100 µM

**Q.** CCOC(=O)n1c2ccccc2c(=O)n1CCO was tested. Which GI50 did it give?
**A.** inactive: > 100 µM

**Q.** How did the GI50 turn out when Fc1ccc(Oc2nc3ccc(C(F)(F)F)cc3nc2-c2ccccc2)cc1 was run?
**A.** inactive: > 100 µM

**Q.** CCCC(N)C(=O)c1ccccc1 (configuration not stated) was tested. Which GI50 did it give?
**A.** inactive: > 100 µM

**Q.** C=CCSC1=N/C(=C\c2ccc(Cl)cc2)C(=O)N1CC=C was tested. Which GI50 did it give?
**A.** inactive: 49.9 µM

**Q.** For COc1cc2c(c(OC)c1OC)C(=O)c1c(O)cc(C)c(OC)c1C2=O, which GI50 is on record?
**A.** inactive: 62.1 µM

**Q.** For CC1=CC(C)C(C)N(CCNS(=O)(=O)c2ccc(C)cc2)c2ccccc21 (configuration not stated), which GI50 is on record?
**A.** inactive: 17.7 µM

**Q.** With NNC(=O)C(=O)NN=C(C(Cl)(Cl)CO)C(Cl)(Cl)CO as the molecule, how does the GI50 read?
**A.** inactive: > 100 µM

**Q.** Which GI50 does the source give for COc1ccc(/C=C/c2nnc(S)[nH]2)cc1OC here?
**A.** inactive: > 100 µM

**Q.** With CCOC(=O)c1c(O)cn2c1[nH]c1cccc3cccc2c31 as the molecule, how does the GI50 read?
**A.** inactive: > 100 µM

**Q.** With O=C(O)CCNS(=O)(=O)c1ccc([N+](=O)[O-])cc1 as the molecule, how does the GI50 read?
**A.** inactive: > 100 µM

**Q.** How did the GI50 turn out when O/N=C1/Nc2ccccc2C(=S)N2CSCC12 (configuration not stated) was run?
**A.** inactive: 65.2 µM

**Q.** For CC1CC(C)C(O)C(C2CC(CC(=O)NC3CCCCC3)CC(=O)O2)C1 (configuration not stated), which GI50 is on record?
**A.** inactive: > 100 µM

**Q.** Which GI50 does the source give for CCCCCC#COC1CC(C)CC[C@@H]1C(C)C (some centres not stated) here?
**A.** inactive: > 100 µM

**Q.** With C1=CC(=[N+]2N=C(c3ccccc3)CC2c2ccccc2)C=CC1=C1SC(c2ccccc2)(c2ccccc2)c2ccccc21.[O-][Cl+3]([O-])([O-])[O-] (configuration not stated) as the molecule, how does the GI50 read?
**A.** inactive: > 100 µM

**Q.** With CC1(C)[C@@H](Cn2ccc(=O)[nH]c2=O)CC[C@@]1(C)CO as the molecule, how does the GI50 read?
**A.** inactive: > 100 µM

**Q.** For O=C1c2ccccc2C(=O)c2c1ccc1c2OCO1, which GI50 is on record?
**A.** inactive: > 100 µM

**Q.** How did the GI50 turn out when CCN1/C(=C/C(C)=C/c2sc3ccccc3[n+]2CC)Sc2ccccc21 was run?
**A.** active: 0.342 µM

**Q.** With Oc1nc(S)nc(SCc2c(Cl)c(Cl)c(Cl)c(Cl)c2Cl)n1 as the molecule, how does the GI50 read?
**A.** inactive: > 100 µM

**Q.** For O=c1cc(-c2ccccc2F)[nH]c2ccc(N3CCCC3)cc12, which GI50 is on record?
**A.** active: 0.00139 µM
